# Measured values taken from the supplement of paper PMC10477191.
# ± gives the standard deviation of the averaged measurements. Some of the results follow.
# Test system: Drosophila novamexicana
# Experiment: attraction index (odor vs solvent trap) (index (-1 to 1)); higher = more attraction to the odorant
# Settings: odor dose: 10^-2 dilution in mineral oil
# Experimental: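 Two-choice trap assay (odor 10^-2 in mineral oil vs solvent, 20 flies, 24 h) run in a Percival incubator at test temperatures of 10-35 °C and 70% humidity, with flies reared at 18 or 25 °C. Attraction index = (O-C)/n; 10 replicates. The paper excluded the 10 and 35 °C tests because of impaired locomotion.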
# [1] = test temperature 15 °C, rearing temperature 18 °C
# [2] = test temperature 15 °C, rearing temperature 25 °C
# [3] = test temperature 20 °C, rearing temperature 18 °C
# [4] = test temperature 20 °C, rearing temperature 25 °C
# [5] = test temperature 25 °C, rearing temperature 18 °C
# [6] = test temperature 25 °C, rearing temperature 25 °C
# [7] = test temperature 30 °C, rearing temperature 18 °C
# [8] = test temperature 30 °C, rearing temperature 25 °C
Structure (SMILES),attraction index [1],attraction index [2],attraction index [3],attraction index [4],attraction index [5],attraction index [6],attraction index [7],attraction index [8]
COc1ccccc1O [guaiacol],0.149 ± 0.75,-0.195 ± 0.36,-0.224 ± 0.74,-0.0986 ± 0.5,-0.252 ± 0.6,-0.209 ± 0.44,-0.155 ± 0.44,-0.454 ± 0.36
CC(C)OC(=O)c1ccccc1 [isopropyl benzoate],-0.00925 ± 0.32,0.0382 ± 0.59,-0.0426 ± 0.48,0.00328 ± 0.56,-0.0973 ± 0.44,-0.181 ± 0.28,-0.171 ± 0.43,-0.378 ± 0.41
COC(=O)c1ccccc1O [methyl salicylate],0.0847 ± 0.67,-0.397 ± 0.23,-0.213 ± 0.47,-0.246 ± 0.33,-0.199 ± 0.27,0.203 ± 0.29,-0.124 ± 0.49,-0.103 ± 0.32
